The other results are listed elsewhere or left out.
The molecules below were run on T1, C. trachomatis L2/434/Bu expressing GFP (CTL2-GFP). Conditions: total inclusion area; 28.5 h, 10 µM; inhibitor.
T1 construct: L2/434/Bu GFP intracellular growth in HeLa cells
Parameters: species or system HeLa; C. trachomatis total inclusion area by high-content imaging, normalised to DMSO
Procedure, shortened: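 Following bulk GFP and resorufin fluorescence reads, infected cells were fixed, Hoechst-stained and imaged on a high-content platform. Inclusion total area and number per well served as growth proxies; nuclei counts indicated host viability. MICs were derived as for the fluorescence assay.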

| SMILES | % of control remaining |
| --- | --- |
| CC(=O)CSc1nc2c(c(=O)n(C)c(=O)n2C)n1CCCc1ccccc1 [CBK269581] | 89.134 |
| CCOC(=O)Cn1c(CN2CCCCC2C)nc2c1c(=O)n(C)c(=O)n2C (stereo not drawn) [CBK269382] | 103.385 |
| Cc1cccnc1C(c1ccccc1)N(C)C(=O)C1CCN(C(=O)OCc2ccccc2)CC1 (stereo not drawn) [CBK060522] | 103.464 |
| Cc1cccc(Nc2nc3nonc3[nH]/c2=N\N=C/c2cn(Cc3ccc(Cl)cc3Cl)c3ccccc23)c1C [CBK262378] | 94.1905 |
| c1cncc(COc2nc3ccccc3nc2N2CCCC2)c1 [CBK115762] | 87.9231 |
| Cn1cc(-c2nc(C(=O)NC3CCCN(c4ncccn4)C3)cs2)cn1 (stereo not drawn) [CBK305629] | 68.0613 |
| COc1cc2nc3c4ccccc4n(CC(=O)O)c3nc2cc1OC [CBK263626] | 96.4008 |
| CN(C)CCCNC=C1C(=O)CC(C)(C)CC1=O [CBK262043] | 97.4332 |
| O=C(O)CCC(=O)Nc1ccccc1NC(=O)c1ccc(C(F)(F)F)cc1 [CBK265770] | 55.164 |
| COc1ccccc1C1CCN(C(=O)c2ccc(C(C)(C)C)cc2)CC1 [CBK086469] | 106.997 |
| C=CCC1(CC=C)CCN1C(=O)c1sc2ncn(C)c(=O)c2c1C [CBK282637] | 128.21 |
| O=C(N[C@H]1CO[C@H]2[C@@H]1OC[C@@H]2n1cc(-c2ccccc2)nn1)N1CCOCC1 [CBK289503] | 114.603 |
| CS(=O)(=O)N[C@H]1C[C@H]2C(=O)Nc3ccc(-c4cccs4)cc3C(=O)N2C1 [CBK289359] | 100.989 |
| CC(=O)N/C(=C\c1ccccc1)C(=O)NC(C)C(=O)O (stereo not drawn) [CBK261491] | 101.58 |
| N=C1S/C(=C/c2ccc(-c3ccccc3C(=O)O)o2)C(=O)N1c1nccs1 [CBK077624] | 99.0808 |
| Cc1ccc(CCC2CCN(C(=O)c3ccc(O)nc3)CC2)cc1 [CBK296724] | 105.146 |
| c1ccc(-n2nnnc2SCc2cccc(CSc3nnnn3-c3ccccc3)n2)cc1 [CBK263258] | 109.702 |
| COCC(=O)N1CCc2sccc2C1c1ccc(NCc2ccc(OC)cc2)cc1 (stereo not drawn) [CBK286458] | 92.0853 |
| CNC(=O)CC1CCN(c2cc(C#N)ccc2C(F)(F)F)CC1 [CBK306450] | 47.1726 |
| CC(C)(C)c1cnc(C(=O)NC2CCCN(c3ncccn3)C2)o1 (stereo not drawn) [CBK305777] | 50.7749 |
| CS(=O)(=O)N(CC(=O)Nc1ccc(S(=O)(=O)N2CCCCC2)cc1)c1ccc2c(c1)OCO2 [CBK268189] | 98.2221 |
| Cc1ccc(Oc2cc(-n3nc(C)c(C(N)=O)c3N)ncn2)cc1 [CBK099753] | 82.9649 |
| OCc1ccccc1-c1cncc(NCC2CCOCC2)n1 [CBK037309] | 105.286 |
| CC(C(=O)N1CCC(c2cc3cccnc3[nH]2)CC1)N1CCCC1=O (stereo not drawn) [CBK282705] | 90.095 |
| CCOC(=O)c1c(C)oc2ccc(OCC(=O)c3ccc(Br)cc3)cc12 [CBK263841] | 98.5491 |
| CNC(=O)N1CC(=O)N(Cc2cccc(Cl)c2)C1=O [CBK001918] | 110.5 |

| SMILES | % of control remaining |
| --- | --- |
| Cn1c(Sc2ccc(C(=O)O)cc2[N+](=O)[O-])nnc1-c1ccccc1 [CBK265047] | 109.371 |
| Cc1cc(C)c2nc(-c3ccccn3)cc(C(=O)NCc3cccs3)c2c1 [CBK267772] | 114.761 |
| O=S(=O)(NCC(Nc1cccc2ccccc12)c1ccccc1)c1ccc(Cl)cc1 (stereo not drawn) [CBK264087] | 67.063 |
| O=c1[nH]c(=O)c2cc(S(=O)(=O)Nc3ccc(Oc4cccnc4)cc3)ccc2[nH]1 [CBK286386] | 95.7565 |
| O=C(CN(Cc1ccccc1)S(=O)(=O)c1cc(Cl)ccc1Cl)Nc1cccc(F)c1 [CBK264664] | 106.493 |
| Cc1ccccc1OCC(=O)Nc1c(C)n[nH]c1C [CBK266046C] | 96.7999 |
| CN(CC(=O)NCc1ccccn1)S(=O)(=O)c1ccc(Br)cc1 [CBK265127] | 103.897 |
| NCc1ccc(-c2nc3ccccc3[nH]2)nc1 [CBK024396C] | 80.0626 |
| CCOC(=O)C1(Cc2ccc(F)cc2F)CCCN(S(=O)(=O)CC)C1 (stereo not drawn) [CBK307655] | 44.3168 |
| N#Cc1ccc(CSc2ncccc2C(=O)O)cc1 [CBK287187] | 109.689 |
| Cc1cccc(C(=O)Nc2ccccc2C(=O)Nc2cccc(C(=O)O)c2C)c1 [CBK265911] | 76.8104 |
| O=C(NC(c1ccccc1)c1ccco1)C1CCN(C(=O)c2cccs2)CC1 (stereo not drawn) [CBK059854] | 92.861 |
| O=C(c1cnc2ccccc2n1)N1CCc2ccccc21 [CBK200267] | 101.164 |
| COc1cc(-c2cncc(NCCCO)n2)cc(OC)c1OC [CBK065271] | 98.3306 |
| Cc1c(C(N)=O)sc(NC(=O)c2cccnc2)c1C#N [CBK268163] | 88.7562 |
| CCOc1cc(OCC)cc(C(=O)N2CCCC3(CC(=O)c4ccc(C)cc4O3)C2)c1 (stereo not drawn) [CBK168067] | 118.537 |
| CN1C(=O)c2cccc3c(S(=O)(=O)N4CCN(S(=O)(=O)c5ccc6c7c(cccc57)C(=O)N6C)CC4)ccc1c23 [CBK269140] | 100.994 |
| O=C(Nc1cc(N2CCNCC2)c2occc2c1)c1cccc(C(F)(F)F)c1 [CBK061762C] | 69.0804 |
| COc1ccc(CC(=O)O)cc1S(=O)(=O)Nc1ccc(SC)cc1 [CBK298315] | 72.8401 |
| OC1CCN(c2ccc(-c3ccccc3)nn2)CC1 [CBK021753] | 56.361 |
| Cc1nc(C(Cc2ccsc2)NC(=O)C(C)(C)N)sc1C (stereo not drawn) [CBK284775] | 115.028 |
| FC(F)(F)c1nc2ccccc2nc1OC1CCOC1 (stereo not drawn) [CBK115806] | 73.5214 |
| CC(=O)N1CCCC[C@H]2[C@H]1C[C@@H](c1ccccc1)N2C(=O)CN1CCCCCC1 [CBK286120] | 119.416 |
| Cn1nccc1CNCc1c(Br)cc(F)c(F)c1N1CCCCC1 [CBK306284] | 64.6376 |
| Cc1ccc(S(=O)(=O)N2CCN(CC(O)COc3ccc4ccccc4c3Cl)CC2)c(C)c1 (stereo not drawn) [CBK266563] | 101.64 |
| Nc1ncc(-c2ccncc2)nc1NCC1CCOCC1 [CBK063816] | 120.8 |

| SMILES | % of control remaining |
| --- | --- |
| CN(Cc1cn(-c2ccccc2)nc1-c1ccccc1)C(=O)CCc1n[nH]c(=S)[nH]c1=O [CBK295630] | 116.815 |
| Cc1nn(-c2nc3ccccc3s2)c(O)c1C [CBK270254] | 108.243 |
| Cc1nc(C)c(C(=O)NC2Cc3ccccc3C2)s1 [CBK200357] | 88.9422 |
| COCCNc1nccnc1-c1ccccc1CO [CBK038010] | 84.4581 |
| Fc1ccc(-n2cc(-c3cccnc3)nn2)cc1F [CBK113055] | 104.59 |
| Cn1nc(-c2ccc(Cl)cc2)cc1NC(=O)Cn1nnc(-c2ccc(F)cc2)n1 [CBK295203] | 98.5589 |
| COc1ccc(CNC(=O)NC(=O)C2CCN(CCCc3ccc4c(c3)OCO4)CC2)c(OC)c1 [CBK034875] | 68.5513 |
| Cc1c(CNC(=O)c2cc(-c3ccncc3)nc3ccc(Cl)cc23)cnn1C [CBK288627] | 113.576 |
| CNS(=O)(=O)c1cccc(C(C)NC(=O)N2CCC2)c1 (stereo not drawn) [CBK306257] | 58.9137 |
| N#CCCn1cc(C(=O)N2CCOCC2)c(-c2ccccc2)n1 [CBK306207] | 62.3731 |
| Oc1ccc(Br)cc1/C=N/c1ccc(-c2cc(-c3ccc(/N=C/c4cc(Br)ccc4O)cc3)ncn2)cc1 [CBK261630] | 95.489 |
| C(=C\c1ccccc1)/CSc1nnc(CSc2nc3ccccc3s2)n1-c1ccccc1 [CBK264467] | 108.61 |
| Fc1ccc(Cn2nnc(-c3ccncc3)n2)c(Cl)c1 [CBK288534] | 121.456 |
| Cc1cccc(OCc2nnc(SCC(=O)Nc3cccc4ccccc34)o2)c1C [CBK267153] | 86.0028 |
| Ic1ccc(NCc2cn3ccccc3n2)cc1 [CBK058563] | 98.9303 |
| CC(C)NC(=O)c1sc2ccccc2c1C1CN(Cc2c[nH]nc2C(C)(C)C)CCO1 (stereo not drawn) [CBK285535] | 112.14 |
| Cc1onc(-c2ccccc2)c1C(=O)NNC(=S)NC(=O)c1ccc(Cl)cc1 [CBK267493] | 80.0065 |
| O=C(C1=C(O)C(=O)N(Cc2cccnc2)C1c1cccc(Oc2ccccc2)c1)c1ccc(Cl)cc1 (stereo not drawn) [CBK264698] | 113.684 |
| O=C1CCC(=O)N1CCOc1nccnc1N1CCN(Cc2ccc(Cl)cc2)CC1 [CBK084290] | 97.3714 |
| O=c1[nH]c2ccc(NS(=O)(=O)c3ccc4c(c3)OCCCO4)cc2[nH]1 [CBK295315] | 90.648 |
| CCOc1ccc(S(=O)(=O)N2CCCCC2)cc1-c1nc(=O)c2c([nH]1)c(C(C)(C)C)nn2C [CBK265119] | 122.61 |
| CN1CCN(c2ccc(NC(=O)c3ccc(OCc4ccccc4)cc3)cc2)CC1 [CBK266124] | 124.603 |
| O=c1[nH]c2cc3nn[nH]c3cc2[nH]1 [CBK018154] | 85.8836 |
| Cc1ncccc1C(=O)NC(CC(C)C)c1nnc2n1CCNCC2 (stereo not drawn) [CBK307348] | 41.6138 |
| COc1ccc(C(C)c2cc3c(cc2OCC(=O)O)OCO3)cc1 (stereo not drawn) [CBK200108] | 79.7855 |
| C[C@H](c1ccccc1)n1c(=O)[nH]c2ncc(-c3cccc(C(=O)NCCN(C)C)c3)nc21 [CBK064204] | 104.185 |

From article PMC12040169 (PLOS Biology, 2025)
